The campaign covered roughly 370,000 compounds. About 500 (0.14%) were called active. The shares of active, inactive and inconclusive entries below differ from those in the screen. Calls follow the shape of the dose curve; as a rule, active = well fitted activation curve with a large enough effect; inconclusive = small, poorly fitted or top-dose-only effect; inactive = no such curve, though single readings can be large or run the other way. No potency is given beside an inconclusive call; the fits are too rough.
Experiment: qHTS of alpha-syn Inhibitors; also: nearly all actives have a fitted effect of over 65% in size; as to growth rescue (activation): % of control where 0% means no effect
Conditions: Yeast expressing alpha-synuclein, BacTiter-Glo, 24 h; Potency: growth rescue unless noted; growth rescue (activation): at 46.1 µM (top of the series) unless noted
Summary of the method: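 Readout is rescue of growth in alpha-synuclein-expressing yeast, so inhibitors of toxicity appear as activators. Growth after 24 hr at 30 deg C in galactose medium is quantified by luminescence.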
Potency is read from the fitted curve at half-maximal effect; tags tell the direction and shape of the fitted curve.

Structure (SMILES)	Potency	growth rescue (activation)
COc1ccc(C(c2c(O)cc(C)oc2=O)c2c(O)cc(C)oc2=O)cc1	inconclusive [activator, single point]	–
O=C1OCCC1Sc1nnc(-c2ccc3c(c2)OCO3)o1 (stereo unspecified)	–	inactive: -1.16%
O=C(CSc1c(Cl)cccc1Cl)N1CCC(c2nc3ccccc3s2)CC1	inconclusive [activator, single point]	–
CC(CC(=O)Nc1cccc(Cl)c1)c1ccccc1 (stereo unspecified)	–	inactive: 0.563%
Cc1cc(Nc2cccc(Cl)c2)nc(NCc2ccccc2)n1	inconclusive [activator, single point]	–
CC(Oc1ccc(Cl)cc1Cl)C(=O)NCCCCc1ccccc1 (stereo unspecified)	inconclusive [activator, single point]	–
CCCCNC(=O)C[C@@H]1C[C@@]2(C(=O)OC)CCCCC=C2N(Cc2ccc(Cl)cc2Cl)C1=O	inconclusive [activator, single point]	–
O=S(=O)(NNC(=S)Nc1ccc(S(=O)(=O)Nc2ncccn2)cc1)c1ccc(Br)cc1	inconclusive [activator, single point]	–
CC(=O)c1ccc2c(c1)C1C=CCC1C(c1cc3c(cc1Br)OCO3)N2 (stereo unspecified)	–	inactive: -2.6%
Cc1ccc(-c2nc3ncccc3o2)cc1NC(=O)Cc1ccc(Cl)cc1	–	inactive: -2.88%
Cc1ccc2nc(SCC(=O)N3N=C(c4cccs4)CC3c3ccc(F)cc3)nc(=O)n2c1 (stereo unspecified)	inconclusive [activator, single point]	–
CCOc1ccc(OCC)c(NC(=O)C2CCN(c3nnc(-n4cccc4)s3)CC2)c1	–	inactive: 1.66%
CCN(Cc1ccccc1)S(=O)(=O)c1cc(C(=O)NC2CCCCCC2)ccc1OC	inconclusive [activator, partial curve]	–
FC(F)(F)c1cccc(NC(=S)NCC2COc3ccccc3O2)c1 (stereo unspecified)	–	inactive: -28.8%
COc1ccc(-c2csc3ncnc(N4CCN(Cc5ccccc5)CC4)c23)cc1	–	inactive: 14.2%
O=[N+]([O-])c1cccc(C=NNc2ccc3ccccc3n2)c1O	active: 2 µM	–
CCc1nc(C(N)=O)c2[nH]c(=O)n(-c3ccccc3F)c2n1	inconclusive [activator, full curve]	–
N#Cc1ccccc1OCCn1cncn1	–	inactive: -7.36%
O=C(CC1CC2CCC1C2)Nc1nc(-c2ccccn2)cs1 (stereo unspecified)	active: 25.1 µM	–
Cc1ccccc1C(=O)Nc1ccc(C(=O)N/N=C/c2ccc(F)cc2)cc1	inconclusive [activator, single point]	–
Cc1noc(/C=C/c2ccccn2)c1[N+](=O)[O-]	inconclusive [activator, single point]	–
COc1cc(C2CC(=O)Oc3c2c(=O)[nH]c2ccccc32)cc(OC)c1OC (stereo unspecified)	–	inactive: 3%
CCOc1ccc(N2C(=O)C3ON(c4ccccc4)C(c4ccco4)C3C2=O)cc1 (stereo unspecified)	inconclusive [activator, single point]	–
O=C1C=C(c2ccc3[nH]ccc3c2)C[C@@H](c2ccc(F)cc2)C1	inconclusive [activator, partial curve]	–

Structure (SMILES)	Potency	growth rescue (activation)
OCCC1CN(Cc2cc(F)ccc2-n2cccn2)CCN1C1CCCC1 (stereo unspecified)	inconclusive [activator, single point]	–
F[B-](F)(F)c1cc2ccccc2s1	–	inconclusive: -55.5% [activator]
O=C(/C=C/c1ccco1)NC(=S)NNC(=O)c1ccco1	active: 11.2 µM	–
Cc1sc2ncnc(N/N=C/c3ccccc3O)c2c1C	inconclusive [activator, single point]	–
O=C(Cn1c(C(F)(F)F)nc2ccccc21)Nc1ccccc1N1CCOCC1	–	inactive: 0.264%
CCOc1ccc(-c2nc(N)ncc2Oc2cccc(OC)c2)c(O)c1	inconclusive [activator, single point]	–
Fc1ccccc1/C=N/n1cnnc1	inconclusive [activator, single point]	–
c1ccc(C[n+]2c(-c3ccccc3)csc2Nc2ccccc2)cc1	–	inactive: 2.22%
O=C1CSC2(C(=O)N(Cc3cccc(F)c3)c3ccccc32)N1c1cccc(C(F)(F)F)c1 (stereo unspecified)	inconclusive [activator, single point]	–
CCC(=O)Nc1nc2ccccc2n1Cc1ccc(Cl)cc1	inconclusive [activator, single point]	–
NC(=S)NN=Cc1nccc2ccccc12	active: 20 µM	–
CCc1ccccc1OCC(=O)Nc1nc(-c2cccnc2)cs1	inconclusive [activator, single point]	–
O=C(COc1ccccc1C(=O)OCC(=O)Nc1cccc2ccccc12)Nc1ccc(Br)cc1	inconclusive [activator, single point]	–
COCCN(C(=O)COC(=O)c1ccc(Br)o1)c1c(N)n(Cc2ccccc2)c(=O)[nH]c1=O	inconclusive [activator, single point]	–
O=C(Nc1cccc(NC(=O)c2cccc(Cl)c2)c1)c1cccnc1	–	inactive: -5.78%
CCCCN(Cc1ccccc1)S(=O)(=O)c1cc2c(cc1Br)CC(C)N2C(C)=O (stereo unspecified)	inconclusive [activator, single point]	–
CCOC(=O)c1ccc(-c2ccc(/C=N/NC(=O)CN(c3ccccc3Br)S(C)(=O)=O)o2)cc1	inconclusive [activator, single point]	–
CCCc1nc2c(C)cc(Br)cn2c1Cc1ccccc1C(F)(F)F	inconclusive [activator, single point]	–
COc1ccc(-c2[nH]ncc2-c2ccc(Cl)cc2)c(O)c1	inconclusive [activator, single point]	–
COc1ccccc1CNCC(O)(c1ccc(F)cc1)c1ccc(F)cc1	inconclusive [activator, single point]	–
CCN(CC)c1ccc(/C=C/c2nccc3ccccc23)cc1	inconclusive [activator, single point]	–
COc1cc2c(cc1OC)n(CC(=O)NC1CCCCCC1)n1c(C)cc(=O)nc21	inconclusive [activator, single point]	–
COc1ccc(C2OCC(C)([N+](=O)[O-])CO2)cc1 (stereo unspecified)	–	inactive: 1.36%
COC(=O)c1ccc(NC(=O)CSc2nc(C)cc(=O)[nH]2)cc1	inconclusive [activator, single point]	–

Structure (SMILES)	Potency	growth rescue (activation)
O=C(COc1ccc(Cl)cc1)NCCSCc1cccc(Cl)c1	–	inactive: 18.2%
COc1ccc(NS(=O)(=O)c2cccc3ccccc23)cc1	inconclusive [activator, single point]	–
CCCCNC(=O)C1(C)CCC(=O)N1CCc1c[nH]c2ccccc12 (stereo unspecified)	inconclusive [activator, single point]	–
CC(NC(=O)Nc1ccc([N+](=O)[O-])cc1)C(c1ccccc1)N1CCOCC1 (stereo unspecified)	inconclusive [activator, single point]	–
CCOc1ccccc1N1C(=O)c2ccccc2N/C1=C\N1CCN(C(=O)c2ccco2)CC1	inconclusive [activator, single point]	–
COc1ccccc1NS(=O)(=O)c1cc(NC(=O)CCNC(C)=O)ccc1N1CCCCC1	inconclusive [activator, single point]	–
Nc1nc(N)c2cc(S(=O)(=O)c3ccc4ccccc4c3)ccc2n1	–	inactive: -1.07%
CN(CCc1ccccc1)C(=O)c1cc(COc2cccc(C(F)(F)F)c2)on1	inconclusive [activator, partial curve]	–
O=S(=O)(c1cccc(C(F)(F)F)c1)N1CCN(c2nc(-c3ccccc3)nc3ccccc23)CC1	–	inactive: 0.228%
Cn1cc(C(c2ccccn2)c2cn(C)c3ccccc23)c2ccccc21	inconclusive [activator, single point]	–
CCOc1ccc(OCC)c(NC(=O)CN(C)S(=O)(=O)c2cccc3nsnc23)c1	inconclusive [activator, single point]	–
CCOC(=O)Nc1ccc2c(c1)N(C(=O)CCN1CCN(CCO)CC1)c1ccccc1S2	–	inactive: 0.591%
COc1ccc(C(=O)N/C(=C\c2ccc(-c3cccc([N+](=O)[O-])c3)o2)C(=O)NCCCN2CCOCC2)cc1	inconclusive [activator, single point]	–
Cc1cccc(C)c1-n1nnnc1C(c1ccnc2ccccc12)N1CCN(C(=O)OC(C)(C)C)CC1 (stereo unspecified)	inconclusive [activator, single point]	–
COc1ccc(-c2nnc(SCC(=O)N(C)C3CCS(=O)(=O)C3)n2CC(C)C)cc1 (stereo unspecified)	inconclusive [activator, single point]	–
CC(Sc1nc2ccccc2s1)C(=O)NCc1ccc2c(c1)OCO2 (stereo unspecified)	inconclusive [activator, partial curve]	–
O=C(CCc1ccccc1)NNC(=O)c1ccc(Cl)cc1	–	inactive: 6.06%
COc1ccc(Cl)cc1N=C1NC(=O)CC(C(=O)Nc2ccccc2C(F)(F)F)S1 (stereo unspecified)	inconclusive [activator, single point]	–
C=CC[C@@H](CC(=O)N[C@@H](CO)Cc1ccccc1)C(=O)N[C@@H](C)COC(=O)[C@@H](CC=C)Cc1ccc(F)cc1	–	inactive: -2.4%
COc1cc(OC)c(/C=N/NC(N)=S)cc1Br	–	inactive: -1.54%
COc1ccc(-c2cc(-c3cc(OC)ccc3O)[nH]n2)cc1	–	inactive: 5.77%
Nc1cccc(-c2nc3ncccc3o2)c1	–	inactive: 7.1%
CC(Sc1cccc[n+]1[O-])c1ccccc1 (stereo unspecified)	inconclusive [activator, single point]	–

Reference: PubChem BioAssay AID652106 (National Center for Advancing Translational Sciences (NCATS), 2013)
